± gives the standard deviation of the averaged measurements. This is one part of the list.
test system: PfAP2-LT AP2 domain (GST-tagged); assay: gcPBM binding intensity (ln(normalized median fluorescence intensity)); higher = stronger DNA binding
In short: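 Each value is the highest Masliner-normalised natural-log median intensity across replicate spots of either orientation of a probe. The probes were primer-extended double-stranded 36-bp intergenic genomic sequences on an Agilent 4 × 180k array, alongside negative controls, exposed for 1 h to GST-tagged P. falciparum DNA-binding domains expressed in E. coli. Bound protein was picked up with Alexa488 anti-GST antibody and scanned at 488 nm.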

“TTTTCTTACATGAGTGTACACACTTTTTTTCAGAAA [CACACA_site70]” and “TTTATATAATTTTAATGTACATATATATATATAAAT [XGTACX_site4381]” are within error of each other in “gcPBM binding intensity (ln)” value: 8.79 ± 0.42 for the first, 8.51 ± 0.42 for the second.

“TATCTATAATATTATACACACATATATGCATAATAT [CACACA_site6175]” and “TAATAAATAAGATTCACACATATTTAAATGTTATGC [CACACA_site5275]” are within error of each other in “gcPBM binding intensity (ln)” value: 9.16 ± 0.39 for the first, 8.66 ± 0.35 for the second.

“TTCTTCACATACACTTCAAAATTTGATAAAACATTA [CACACA_negctrl_site472]” and “ATATATCATAAATAAATGAAAATATTTTCTATGTGT [CACACA_negctrl_site689]” are within error of each other in “gcPBM binding intensity (ln)” value: 8.52 ± 0.47 for the first, 8.66 ± 0.41 for the second.

TTATTTGAATAATGTTTGCACTTAGAGTATTTTATA and “TATTATAAAACATTATGTACATATTCTGAAAAATAG [XGTACX_site6577]” are within error of each other in “gcPBM binding intensity (ln)” value: 8.65 ± 0.37 for the first, 8.57 ± 0.35 for the second.

Compared with “CAAAATAAAAAATTCACACACATATATATATATATA [CACACA_site2088]”, “TATTTCTTATTTATTTTTTAAGGAAATTAAAGATTT [CACACA_negctrl_site258]” is lower in “gcPBM binding intensity (ln)” value: 9.78 ± 0.12 for the first, 8.04 ± 0.27 for the second.

“AAAACAAATGCTTAAAGTACTTATTATTTTTCTTTT [XGTACX_site6324]” and “TTCCTACTATTCAAACGTACAAAATATTTAAATAAT [XGTACX_site700]” are within error of each other in “gcPBM binding intensity (ln)” value: 8.62 ± 0.47 for the first, 8.39 ± 0.35 for the second.

Compared with “TAAAAATATCTGTATACACACATATATATATATATA [CACACA_site6042]”, “AAAAAAAAAAAAAAAAGTACAAATCTTTATTTATTA [XGTACX_site3305]” is lower in “gcPBM binding intensity (ln)” value: 9.59 ± 0.13 for the first, 8.29 ± 0.46 for the second.

“CAAGTTCAAAATACAAGGAAGAAACAAAACTTGGCG [GTGCAC_negctrl_site600]” and “ATAATATAATATAAAACACACATATGTACCTTCTAA [CACACA_site2761]” are within error of each other in “gcPBM binding intensity (ln)” value: 9 ± 0.48 for the first, 8.91 ± 0.35 for the second.

“TAATATTTCTTATTTTATATTTGTATATGAATGGAT [XGTACX_negctrl_site278]” and “TATTTTTACCCATAAAGTACACATAAATATAAAATA [XGTACX_site177]” are within error of each other in “gcPBM binding intensity (ln)” value: 8.54 ± 0.51 for the first, 8.55 ± 0.46 for the second.

“TATATATCTATATATTGTACATATGTTTGTATGTGT [XGTACX_site7420]” and “ATATAAATCATTGGTTGTACATATAATATTTTATAA [XGTACX_site925]” are within error of each other in “gcPBM binding intensity (ln)” value: 9.23 ± 0.47 for the first, 8.55 ± 0.35 for the second.

“TATGATATCTATAATACACACATATACATAAGATCT [CACACA_site6652]” and “TTAATATAACTTTTTGCACACTTAATTTTTTTTTTT [CACACA_site3364]” are within error of each other in “gcPBM binding intensity (ln)” value: 8.93 ± 0.33 for the first, 8.98 ± 0.52 for the second.

“TTATATAAAACATTAACACACAAAGAAAAAAAATTA [CACACA_site1793]” and “TATATATTAGAAGATAGTACATATATATTTATTAAT [XGTACX_site1011]” are within error of each other in “gcPBM binding intensity (ln)” value: 8.79 ± 0.49 for the first, 8.63 ± 0.39 for the second.

Compared with “GCTCAATGTTTTACATGTACATATATATATATATAT [XGTACX_site8210]”, “TGGTGATCAAAATATACATGCATATGTTCTGTTATT [TGCATGCA_site614]” is lower in “gcPBM binding intensity (ln)” value: 9.495 ± 0.021 for the first, 8.94 ± 0.51 for the second.

“CAACATTTGATAAACACACAGAAGTATAAATATATA [CACACA_site2365]” and “ATCGTTATATAAAAATGTACTTATAAATTGTATACA [XGTACX_site6664]” are within error of each other in “gcPBM binding intensity (ln)” value: 9 ± 0.45 for the first, 8.68 ± 0.44 for the second.

Compared with “AAAGGAAAAATCCAAGTGCATTATTATTTTCACAAA [GTGCAC_site9995]”, “TAGTATAATATGAACACACACACACGCACAAAAAAA [CACACA_site7035]” is higher in “gcPBM binding intensity (ln)” value: 8.51 ± 0.54 for the first, 9.94 ± 0.27 for the second.

“TGTAAGCACATACAAACACACAACATTATTTTTATC [CACACA_site2186]” and “GAAAAAAATGAAATTAGTACTTATCTTAAATTTTTA [XGTACX_site1018]” are within error of each other in “gcPBM binding intensity (ln)” value: 9.16 ± 0.48 for the first, 8.24 ± 0.45 for the second.

Going from “AAAAATATATAATAAAGTACACATAAATGAATAAAT [XGTACX_site329]” to “TTTTTTTTTTTTTGATGTACAATTAATATTATAAAA [XGTACX_site6969]”, the “gcPBM binding intensity (ln)” value falls from 9.07 ± 0.48 to 8.16 ± 0.4.

“AGTAATAAATAATTTACACACATATTATATCATCAC [CACACA_site1890]” and “CATTTTAAAGAAAATACACACAAAAATAGATATATA [CACACA_site6773]” are within error of each other in “gcPBM binding intensity (ln)” value: 9.1 ± 0.33 for the first, 8.87 ± 0.42 for the second.

“ATTTCTTTTTTATTGAGTACATATGACCATGTTCAA [XGTACX_site5365]” and “AAGAAATAAAGCAAAACATGCACTCGAAAATGTTTT [TGCATGCA_site1014]” are within error of each other in “gcPBM binding intensity (ln)” value: 8.78 ± 0.49 for the first, 8.91 ± 0.38 for the second.

“TATTGTTAAAATGAATAATTAAAACAGTAATGAATA [XGTACX_negctrl_site170]” and “TTAGCAACTATTACTACACACATTTTTATATAACTT [CACACA_site6762]” are within error of each other in “gcPBM binding intensity (ln)” value: 8.52 ± 0.53 for the first, 8.97 ± 0.47 for the second.

“ATGTCTAATTTTGATGCACACTTTTGTGCAATTAAA [CACACA_site5589]” and “TATATATGTTTTTATGTACACACTTTTAACCTAAGA [CACACA_site1149]” are within error of each other in “gcPBM binding intensity (ln)” value: 8.72 ± 0.41 for the first, 8.79 ± 0.42 for the second.

“CGCATGCAATGTTAATGTACATATATATATATATGT [XGTACX_site3316]” and “AGGTGCAAAAATAAAACATGCAAAAATAAAAATGAA [TGCATGCA_site502]” are the same in “gcPBM binding intensity (ln)” value: 9.12 ± 0.22 for the first, 9.12 ± 0.6 for the second.

AATAATTAAATAAGAGTGCATGAAACAGGAAATTTC and “AATAGTCGTGTGCATACACACCTTAACTATAATATA [CACACA_site6636]” are within error of each other in “gcPBM binding intensity (ln)” value: 9 ± 0.4 for the first, 9.14 ± 0.28 for the second.

“TAATAAAAAATATATACACACAAATAAATAAATAAA [CACACA_site4037]” and “ATTCAGTTATATAATACACACATATATTGACATTAT [CACACA_site2723]” are within error of each other in “gcPBM binding intensity (ln)” value: 8.96 ± 0.4 for the first, 9.04 ± 0.35 for the second.

Compared with “ACAGTATCTGGTAGCTGTACGAGTCGTAGAGAGTAG [XGTACX_site2041]”, “TACGCTCCCAGACACACACACACACCGATATAATAT [CACACA_site8098]” is higher in “gcPBM binding intensity (ln)” value: 9.09 ± 0.46 for the first, 9.89 ± 0.23 for the second.

“ATTTATTGACTATTTACACACATATTTATTAAAATA [CACACA_site4980]” and “TATTATATTATGTGATGTACATATTTATATAGGCCC [XGTACX_site4746]” are within error of each other in “gcPBM binding intensity (ln)” value: 8.88 ± 0.28 for the first, 8.72 ± 0.47 for the second.

“TATTACATACCTTATTGTACAAATTATATATTAAAG [XGTACX_site7334]” and “TAATTTTTTTTTAATTGTACATGTGAATATATTTCA [XGTACX_site4115]” are within error of each other in “gcPBM binding intensity (ln)” value: 8.61 ± 0.36 for the first, 8.52 ± 0.42 for the second.

Compared with “GTTTACATTTTAAGAAGTACAAAATTTATGGTTAAA [XGTACX_site450]”, “TATATATATATATGTAGTACTCAATATTGTAGATTA [XGTACX_site3856]” is higher in “gcPBM binding intensity (ln)” value: 8.47 ± 0.42 for the first, 9.265 ± 0.064 for the second.

In the case of “AAATATATGTATATATGTACATATGTGTGCTATCAT [XGTACX_site1604]”, the “gcPBM binding intensity (ln)” value is reported as 9.15 ± 0.42.
